According to paper PMC11239674:
Numbering of substitutions follows the chain as printed.

Assays:
Assay in all cases: MST
BnGRP7 (Brassica napus) = target: T1, BnGRP7 (Brassica napus) (UniProt A0A078J5Z4); settings: 25 mM Tris-HCl pH 8.0, 150 mM NaCl (150 mM LiCl for Sc1 LiCl), 1 mM DTT, 0.1 mg/ml BSA, 20 nM Cy5-RNA, temperature not stated, low values mean tight binding
T1 sequence: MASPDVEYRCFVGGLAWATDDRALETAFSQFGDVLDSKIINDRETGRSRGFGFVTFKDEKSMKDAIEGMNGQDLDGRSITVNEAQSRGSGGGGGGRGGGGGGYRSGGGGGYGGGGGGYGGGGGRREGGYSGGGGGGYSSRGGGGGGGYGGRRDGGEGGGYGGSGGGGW

[1] = tested on: AtGRP7 (Arabidopsis thaliana); settings: MST: 25 mM Tris-HCl pH 8.0, 150 mM NaCl, 1 mM DTT, 0.1 mg/ml BSA, 20 nM Cy5-RNA, protein titrated from 50-75 uM, about 2 min incubation, temperature not stated
[2] = target: T2, AtGRP7 (Arabidopsis thaliana) (UniProt Q03250); settings: 25 mM Tris-HCl pH 8.0, 150 mM NaCl (150 mM LiCl for Sc1 LiCl), 1 mM DTT, 0.1 mg/ml BSA, 20 nM Cy5-RNA, temperature not stated, low values mean tight binding
T2 sequence: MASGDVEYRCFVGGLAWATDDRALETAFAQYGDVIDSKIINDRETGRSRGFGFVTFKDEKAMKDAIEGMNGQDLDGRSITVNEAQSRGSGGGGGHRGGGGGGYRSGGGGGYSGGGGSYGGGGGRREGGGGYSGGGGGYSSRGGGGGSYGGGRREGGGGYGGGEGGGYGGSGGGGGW

[3] = target: T3, AtBnGRP7 (Arabidopsis thaliana / Brassica napus chimera) (UniProt Q03250); settings: 25 mM Tris-HCl pH 8.0, 150 mM NaCl (150 mM LiCl for Sc1 LiCl), 1 mM DTT, 0.1 mg/ml BSA; 20 nM Cy5-RNA; about 2 min incubation; temperature not stated; low values mean tight binding
T3 sequence: T1 sequence with P4G, S29A, F31Y, L35I, S61A

[4] = about 50% of A as m6A, random, about 2 min …
[5] = about 50% of C as m5C, random, about 2 min …

AUGAAAGUAAACUGCUUGCUUGCACACUUAGACGUGUAA [BnaC05g32740D]
Kd (BnGRP7 (Brassica napus); about 2 min incubation): 6.69 µM

AtCOR15A CDS RNA
Kd [1]: 0.062 µM

GFP RNA
Kd [1]: 9.17 µM

GGAUGACAACCGUAGCCGCAACAGGCAUCAACGUCGCGACUCCACGACUGGUCAUUCGACCAGCGGCUCGUCUAUACGCCCCGGUCCGUUUGAAUUACCCGUGGAAAUUCGGUUCGAUGAACCGGAUGGUUACGUCGGUGAAGGCGACAUCGGAAGGAGGGAUGAUAUCGGAUAAGGUGGAGAAGAGUAUUCAGGAAGCGAAGGAGACUUGCGCUGACGAUCCUGUGAGCGGAGAGUGUGUUGCGGCGUGGGACGAGGUGGAGGAGCUGAGCGCCGCGGCGAGUCACGCUAGGGACAAGAAGAAAGCUGGUGGAUCCGAUCCUUUGGAAGAAUACUGCAGUGAUAAUCCUGAGACUGAUGAGUGUCGUACUUAUGACAACUGA [CP12-1]
Kd ([2]; about 2 min incubation): 0.686 µM
Kd [2, 4]: 0.429 µM
Kd [2, 5]: 0.256 µM
Kd (BnGRP7 (Brassica napus); about 2 min incubation): 6.08 µM
Kd (BnGRP7 (Brassica napus); [4]): 13.9 µM
Kd (BnGRP7 (Brassica napus); [5]): 10.4 µM

GGAUGCAGUACUACGAAACCCGUGAGAAAGAAUACUACGAUGUGGCUCAAGGUCAGAGCCGCCAGAGCUAUGGCCAGAACCACCAGGGAUAUGGACAGAGCCAAAGUCGCCCAGUAUAUGGGAAUAGUCCGACUCUGAACUACCGUAGCCACGGUGGGUUUCUUGAUGGGUUAUUCAAGGGUAAAAAUGGUCAAAAGGGUCAAAAUGGCUUAGGGUCGUUUCUAGGGCAACACAAGAACCAAGAUACUAACCAGGGCCAUGGACAUGGGAAGCUCUUAGGACAGCACCAGAAGAAAACUCAUGAGACAAACAAAGGUGUUAAUGGCCUAGGAAUGUUCAUAAACAAUGGAGAGAAGAAACAUAAGAAGCAAAAUGAGCACAAGAAGAAGAAGAACAAGGAUGGGCAUGCCAGUGGCAAUGAGAGUGGAAGCAGCAGCGGUAGCGACAGCGAGUAA [BnPARCL]
Kd ([2]; about 2 min incubation): 0.0997 µM
Kd [2, 4]: 0.024 µM
Kd [2, 5]: 0.208 µM
Kd (BnGRP7 (Brassica napus); about 2 min incubation): 4.07 µM
Kd (BnGRP7 (Brassica napus); [4]): 7.93 µM
Kd (BnGRP7 (Brassica napus); [5]): 15.7 µM

GGAUGGCGUCCCCUGAUGUUGAGUACCGGUGCUUCGUUGGAGGUCUAGCUUGGGCCACCGACGACAGAGCUCUCGAGACCGCCUUCUCCCAGUUCGGCGACGUUCUCGAUUCCAAGAUCAUUAACGAUCGUGAGACGGGACGAUCAAGGGGAUUCGGAUUCGUCACCUUCAAGGAUGAGAAGUCGAUGAAGGACGCCAUCGAGGGGAUGAACGGACAGGAUCUCGACGGUCGCAGCAUCACUGUUAACGAGGCUCAGUCUCGUGGAAGCGGUGGUGGCGGAGGAGGCCGCGGCGGAGGCGGUGGUGGAUACCGCAGCGGAGGCGGUGGUGGUUACGGAGGAGGCGGUGGUGGAUACGGUGGAGGUGGUGGAAGACGCGAGGGUGGUUACAGUGGUGGCGGUGGAGGUGGUUACUCGUCGAGAGGAGGUGGUGGCGGUGGAGGUUACGGUGGCAGGCGUGAUGGUGGUGAAGGUGGAGGUUACGGAGGAAGCGGUGGUGGUGGUUGGUAA [BnGRP7]
Kd ([2]; about 2 min incubation): 2.97 µM
Kd (BnGRP7 (Brassica napus); about 2 min incubation): 7.38 µM
Kd [3]: 0.414 µM

GGAUGGGAAAUCGUUGUGCUAGAACUCCUUGUUGUACAAAGUUGUGGUCAUGUAUAUGCUGCUGCUGCUGCAGCAACAACAAAGCUCGAGCAAGAAGCCAACACGGGUCUAAAGGGAAUGUCUAUUCGAUAAACAGAAUUGAGAAAUGGGAAGAAAAGAUAACAGAAGCUAACAACAAUGGCAAGAUUCUGGUGGUGUAUUUCAGCGCGCCGUGGUGUGUACCUUGUAAAAAGAUAGAACCAGUAUUCAGAGAACUUGCUUCUAGAUACCCUUCAAUGAUUUUUGUAACCAUUGAUGUGGAAGAACUCGCUGAGUUUAGUGAUGAAUGGAAUGUGGAAGCUACACCAACUAUAGUGUUUCUUAAAGAUGGGAGACAAAUGGAUAAGCUUGUUGGUGCUGAAACCUCAGAGCUUCAGAAGAAAACAGCUGCAGCUGCUGAACUCUUACUCAGAAAACCAUAA [THIOREDOXINH10]
Kd ([2]; about 2 min incubation): 0.627 µM
Kd [2, 4]: 0.247 µM
Kd [2, 5]: 1.63 µM
Kd (BnGRP7 (Brassica napus); about 2 min incubation): 3.36 µM
Kd (BnGRP7 (Brassica napus); [4]): 9.95 µM
Kd (BnGRP7 (Brassica napus); [5]): 12.3 µM

GGAUGUCCCCGAGGACCAGGGUACAAUCCUUCAUCCACCGCACUGUAAAAAUCUUCUCCGUCUGUCUCACCUCCAUGCUAGAAGAUCUUGACAAGGUCUUCGAUCCUAAACGCCGACUCAUCUCUCCCCAGUCUCACGGAAGCCUCACCGCCUCUCCAAAGACGUCGGGAAUCGUCACCGUCGAGCAAGACCGCGUCUCGGCGAAAGCUCGAACUGGUUCAGAGAAGCAAGUAUAUCGGCUAGGAUUGAUUGAGGAGGAGAAGAGCAAAAGGAAAAAAGGAAAGGAGAAGGAGUUUCGCCUCCGGCACCACCGCAAGGGCAGGCCGGAGCUAGGGUUUCAGGCUGAAGGAGGCGGCUUCUGA [BnaA09g50830D]
Kd (BnGRP7 (Brassica napus); about 2 min incubation): 2.75 µM

GGCAUCACACCUUCCCUCUCUUCACUGUAAACCUACUACAUCUCCCCCUCUCUCUCAUUUCAAUGGCGUCCCCUGAUGUUGAGUACCGGUGCUUCGUUGGAGGUCUAGCUUGGGCCACCGACGACAGAGCUCUCGAGACCGCCUUCUCCCAGUUCGGCGACGUUCUCGAUUCCAAGAUCAUUAACGAUCGUGAGACGGGACGAUCAAGGGGAUUCGGAUUCGUCACCUUCAAGGAUGAGAAGUCGAUGAAGGACGCCAUCGAGGGGAUGAACGGACAGGAUCUCGACGGUCGCAGCAUCACUGUUAACGAGGCUCAGUCUCGUGGAAGCGGUGGUGGCGGAGGAGGCCGCGGCGGAGGCGGUGGUGGAUACCGCAGCGGAGGCGGUGGUGGUUACGGAGGAGGCGGUGGUGGAUACGGUGGAGGUGGUGGAAGACGCGAGGGUGGUUACAGUGGUGGCGGUGGAGGUGGUUACUCGUCGAGAGGAGGUGGUGGCGGUGGAGGUUACGGUGGCAGGCGUGAUGGUGGUGAAGGUGGAGGUUACGGAGGAAGCGGUGGUGGUGGUUGGUAAUUAGAUUUUAGAGUUUGAGGUUGUUGUUGUGUCUGUUCCGUUUCUGGGUUCGGGUUUAUGUUUCUAUCUCUAUGUGUUAUGUUUGGUUCUUGCUGUUUUGGUUGUAACAGUUCGUGGUUAGGUAUCUGAUAUCUGGAAACGCAAUGUUAAAUCACUUUUUCAUUAUCUUGCCGUGUUUUAUUUUUUAAGUUUAACAAAU [BnGRP7]
Kd ([2]; about 2 min incubation): 0.123 µM
Kd (BnGRP7 (Brassica napus); about 2 min incubation): 4.89 µM

Notchless
Kd ([2]; about 2 min incubation): 3.67 µM
Kd (BnGRP7 (Brassica napus); about 2 min incubation): 6.97 µM

Sc1 G-quadruplex RNA
Kd ([1]; 150 mM LiCl instead of NaCl (G4 unfolded)): 0.463 µM
Kd [1]: 6.9 µM

UGGAGAAGCAGGGCACGUGCA [m5C-miR164]
Kd [2, 5]: 0.143 µM
Kd (BnGRP7 (Brassica napus); [5]): 16.9 µM

UGGAGAAGCAGGGCACGUGCA [m6A-miR164]
Kd [2, 4]: 0.142 µM
Kd (BnGRP7 (Brassica napus); [4]): 15.8 µM

defensin like protein 3 RNA
Kd [1]: 2.72 µM
